This is one part of the list.
What follows are molecules tested on HepG2 (assay: cytotoxicity call (relative viability < 0.9)). Details: 10 µM.

| SMILES | cytotoxicity call |
| --- | --- |
| CCN(CC)C(=O)c1ccc[n+](CC(N)=O)c1 | inactive |
| COc1cc(CN2C(=O)[C@@H]3[C@H]4C(=O)O[C@@H](c5ccccc5)[C@H](C)N(C)C(=O)CC/C=C\CN(Cc5ccccc5)C(=O)[C@H]2[C@]32C=C[C@@H]4O2)ccc1O[SiH](C(C)C)C(C)C | inactive |
| Cc1cccc(/C=N/Nc2cc(N3CCOCC3)n3nc(-c4ccncc4)cc3n2)c1 | inactive |
| Nc1ncnc2c1ncn2CCO | inactive |
| CN[C@H]1[C@@H](O[C@H]2[C@@H](O[C@H]3[C@@H](O)[C@@H](O)[C@@H](NC(=N)N)[C@@H](O)[C@@H]3NC(=N)N)O[C@@H](C)[C@@]2(O)C=O)O[C@@H](CO)[C@@H](O)[C@@H]1O.CN[C@H]1[C@@H](O[C@H]2[C@@H](O[C@H]3[C@@H](O)[C@@H](O)[C@@H](NC(=N)N)[C@@H](O)[C@@H]3NC(=N)N)O[C@@H](C)[C@@]2(O)C=O)O[C@@H](CO)[C@@H](O)[C@@H]1O.O=S(=O)(O)O.O=S(=O)(O)O.O=S(=O)(O)O | inactive |
| CC(C)CC#Cc1cnc2c(c1)C(=O)N([C@H](C)CO)C[C@H](C)[C@@H](CN(C)C(=O)c1ccc3c(c1)OCO3)O2 | inactive |
| COCC#Cc1ccc2c(c1)O[C@@H](CN(C)S(C)(=O)=O)[C@H](C)CN([C@H](C)CO)S2(=O)=O | inactive |
| COc1ccc(S(=O)(=O)Nc2cccc3c2O[C@H](CN(C)C(=O)Nc2c(C)noc2C)[C@@H](C)CN([C@H](C)CO)C3=O)cc1 | active |
| C[C@H](CO)N1C[C@H](C)[C@@H](CN(C)CC2CCOCC2)Oc2ncc(C#Cc3ccc(F)cc3)cc2C1=O | inactive |

From the antibiotic and cytotoxicity screens of Wong et al. (2023)
